# Experimental data: publication PMC4336329 (PLoS ONE, 2015)
# Screen size: about 310,000 compounds; about 14,000 (4.5%) showed an effect of 50% or more. Effects have a minus sign here. The list shows a part of the results.
# Target: human ether-à-go-go-related gene (hERG) potassium channel (human, UniProt Q12809)
# Assay: primary screen, population patch clamp on CHO cells stably expressing hERG
# 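Note: peak tail current of the secondary pulse compared with the same well before compound.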
# Sequence of human ether-à-go-go-related gene (hERG) potassium channel (Q12809 whole entry, looked up): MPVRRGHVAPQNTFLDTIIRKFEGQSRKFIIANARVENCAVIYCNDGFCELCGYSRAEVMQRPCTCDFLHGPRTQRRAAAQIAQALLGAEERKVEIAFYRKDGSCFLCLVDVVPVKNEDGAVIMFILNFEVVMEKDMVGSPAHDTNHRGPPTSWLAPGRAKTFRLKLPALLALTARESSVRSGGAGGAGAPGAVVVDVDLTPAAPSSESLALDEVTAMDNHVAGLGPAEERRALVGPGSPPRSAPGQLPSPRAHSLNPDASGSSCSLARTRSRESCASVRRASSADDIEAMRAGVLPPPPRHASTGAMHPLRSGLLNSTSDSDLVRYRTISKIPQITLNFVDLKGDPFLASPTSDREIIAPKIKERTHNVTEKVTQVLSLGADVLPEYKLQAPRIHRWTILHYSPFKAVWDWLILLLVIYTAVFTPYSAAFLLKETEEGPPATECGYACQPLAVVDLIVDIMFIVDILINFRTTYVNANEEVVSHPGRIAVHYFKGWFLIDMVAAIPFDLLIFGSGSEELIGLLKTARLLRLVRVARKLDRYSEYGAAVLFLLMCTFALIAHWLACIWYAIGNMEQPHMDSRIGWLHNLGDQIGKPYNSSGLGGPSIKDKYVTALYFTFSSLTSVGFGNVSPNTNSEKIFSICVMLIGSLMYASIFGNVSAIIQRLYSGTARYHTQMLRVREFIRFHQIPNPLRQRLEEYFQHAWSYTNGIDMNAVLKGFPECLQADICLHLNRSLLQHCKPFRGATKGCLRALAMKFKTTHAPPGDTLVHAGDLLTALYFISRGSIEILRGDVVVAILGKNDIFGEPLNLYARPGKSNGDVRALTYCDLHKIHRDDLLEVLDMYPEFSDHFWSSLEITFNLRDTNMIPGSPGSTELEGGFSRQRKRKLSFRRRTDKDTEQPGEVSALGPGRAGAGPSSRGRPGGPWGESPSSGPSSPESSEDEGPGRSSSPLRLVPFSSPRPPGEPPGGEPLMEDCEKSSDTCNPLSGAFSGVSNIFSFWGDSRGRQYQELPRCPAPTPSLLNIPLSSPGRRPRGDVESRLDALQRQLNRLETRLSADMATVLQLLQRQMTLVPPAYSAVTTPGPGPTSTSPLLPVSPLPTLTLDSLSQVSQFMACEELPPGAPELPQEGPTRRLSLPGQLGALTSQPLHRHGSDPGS
row,SMILES,"hERG current change (%, negative = inhibition) at 10uM [%]"
1,Cc1ccc(OCCCSc2ncccn2)cc1C,-9.73
2,CCOc1ccccc1NC(=O)Cn1nnc(C(=O)NCc2ccc3c(c2)OCO3)c1N,1.75
3,Cc1cccc2c1NC1(CCCC1)CC2C.Cl (stereo not drawn),16.9
4,Cl.O=C(CSc1ncc(-c2ccc(F)cc2)[nH]1)N1CCCCC1,-21.5
5,CSc1ncccc1C(=O)N1CCCC(CCC(=O)NCc2ccccc2F)C1 (stereo not drawn),6.52
6,CCC(OCC(O)CN1CCCCC1)c1ccccc1.Cl (stereo not drawn),16.9
7,O=C(Nc1ccc2nc(-c3cccnc3)[nH]c2c1)c1ccccc1F,-2.82
8,Cc1nnsc1-c1nnc(SCC(=O)c2ccccc2)n1C1CC1,0.696
9,CN(C)c1ccc(C2OC(=O)C3(CCCC3)C(=O)C2(C)C)cc1 (stereo not drawn),0.307
10,CO/N=C/NC(=O)NOCc1c(Cl)cccc1Cl,13.4
11,COC(=O)c1c2[n+](cc3cc(OC)c(OC)cc13)CCc1cc(OC)c(OC)cc1-2.[O-][Cl+3]([O-])([O-])[O-],15.6
12,CCN(CC)CC.COc1ccc(-n2c(=S)[nH]c3c(sc(=S)n3-c3ccccc3)c2=O)c(OC)c1,25.7
13,Cc1cccc(C)c1NC(=O)N1CCN(C2CCCCC2)CC1,18.5
14,CC(C)Sc1nc2sc(-c3ccccc3)cc2c(=O)n1N,7.81
15,COc1ccc(C(C(=O)NC(C)(C)C)N(C(=O)CNC(=O)c2cccs2)c2cccnc2)cc1OC (stereo not drawn),18.3
16,CCOc1ccc(NC(=S)NCc2ccco2)cc1,11.6
17,COc1cc(C(=O)NC(C(=O)Nc2cccc(C(C)=O)c2)C(C)C)cc(OC)c1OC (stereo not drawn),-4.13
18,CCOc1ccc(Nc2oc(-c3ccc(Cl)cc3)nc2C#N)cc1,9.08
19,Cc1ccc(C(=O)Nc2cccc3cccnc23)cc1C,12.6

row,SMILES,"hERG current change (%, negative = inhibition) at 10uM [%]"
1,Cc1ccc(C(=O)N/N=c2\sc3ccccc3n2C)cc1,-33.2
2,CCN(CC)C(=O)C1=C(C)NC(=S)NC1c1cn(-c2ccccc2)nc1-c1ccc(Cl)cc1 (stereo not drawn),-23.6
3,COc1ccc2[nH]c3nc(SCC(=O)NC4CC4)nnc3c2c1,1.09
4,CC(Sc1ccccc1)C(=O)N/N=C/c1cccnc1 (stereo not drawn),1.43
5,CCOC(=O)C1C(=O)C=C(Nc2ccccc2F)CC1c1ccccc1 (stereo not drawn),-21.5
6,Cn1c2ccccc2c2cc([N+](=O)[O-])ccc21,-7.7
7,C/C(=N\Nc1nc(C)cc(-c2ccccc2)n1)c1cccc(N)c1,15.6
8,COc1ccc2ccccc2c1CNCCCN1CCOCC1.Cl,-8.6
9,C#CCOCCOCCOCCNc1nc(N2CCN(C(=O)[C@H]([C@@H](C)CC)n3cc([C@@H](N)CC(C)C)nn3)CC2)nc(N2CCN(C(=O)[C@H](CCCCN)n3cc([C@@H](N)CC(C)C)nn3)CC2)n1.Cl,-10.1
10,C/C(=N\NC(=O)CO/N=C(\C)c1cccs1)c1ccc(N)cc1,-5.57
11,COc1ccc(C2N3CC4(C)CN2CC(C)(C3)C4)cc1OC (stereo not drawn),5.36
12,CCc1ccc(NC(=O)COC(=O)c2cccs2)cc1,4.77
13,Cc1c(Cl)cccc1NC(=S)NCCN1CCOCC1,14.9
14,COC(=O)c1ccc(OCC(=O)NC2CCCCCC2)cc1,0.546
15,O=S(=O)(c1ccc(F)c(Cl)c1)N1CCN(C/C=C/c2ccccc2)CC1,10.2
16,COCCNC(=O)CN1CCC(NC(=O)c2ccco2)CC1,3.48
17,O=C(Cc1n[nH]c(=O)[nH]c1=O)N/N=C/c1c(O)ccc2ccccc12,27.2
18,CC(C)CNC(=O)CCCc1c[nH]c2ccccc12.O=C(O)C(=O)O,7.13
19,C=CCn1c(N2CCOCC2)nc2c1c(=O)[nH]c(=O)n2C,5.9

row,SMILES,"hERG current change (%, negative = inhibition) at 10uM [%]"
1,CC(C)NC(=O)c1cc(-c2cccs2)nc2ccccc12,9.89
2,N#CCCn1cc(/C=N/O)c(-c2ccc(-c3ccccc3)cc2)n1,-4.41
3,O=C(NCc1csc(-c2ccccc2)n1)c1cc(F)cc2c1OCOC2,14
4,CCn1nnnc1SCC(=O)Nc1nc(C)c(C)s1,4.67
5,O=C(NNC(=O)C1CCC1)c1ccccc1F,5.71
6,CCOC(=O)c1c(-n2c(C)cc(/C=C3/C(=O)NC(=O)N(CC)C3=O)c2C)sc2c1CCCC2,2.36
7,COc1ccc(Cl)cc1NC(=O)CCS(=O)(=O)c1cc2c(cc1C)NC(=O)CO2,-35.3
8,Cc1cc(S(=O)(=O)N2CCOCC2)c(C)s1,9.26
9,Cc1ccc(Cn2c(CN3CC(C)OC(C)C3)nc3c2c(=O)[nH]c(=O)n3C)cc1 (stereo not drawn),-20.5
10,C/C(=N\Nc1ccccc1)c1c(O)n(-c2ccccc2)c(=O)[nH]c1=O,11.7
11,COc1ccc2c(c1OC)C(=O)OC2C/C(=N\NC(N)=O)c1ccccc1 (stereo not drawn),21.6
12,Cc1cc(C)c[n+](-c2[nH]c(=O)sc2/C=N/N=C(\N)[S-])c1,22
13,COc1cccc(OC)c1C(=O)Nc1ccc(CN2CCCCC2)cc1,10.6
14,COc1ccc(-c2csc3nc(C(C)C)oc(=O)c23)cc1OC,7.65
15,CNC(=O)C(=O)Nc1ccc(C)cc1C,8.65
16,O=C(NCCO)Nc1ccc2nc(-c3ccco3)c(-c3ccco3)nc2c1,27.2
17,O=C(NC(=O)c1ccccc1O)c1ccc2c(c1)CCO2,17.7
18,CCO[C@H]1OC(C(=O)O)=C[C@@H](c2csc3ccccc23)[C@@H]1CCCO,13
19,CC1(C)CC(=O)C(C(=O)c2ccccc2)C(=O)C1Cl (stereo not drawn),3.06
